Experimental data as given in the supplement of paper PMC10126150.
Sequences with one replicate were seen in a single cluster, so their values are uncertain.

tested on: ATP; assay: switch fluorescence ratio, 500 uM ATP over buffer (Cy3 cluster intensity, sum of 5 cycles each) (fold (ratio)); higher = stronger signal-on switching upon ATP binding; sequences stand for … in TCGTCGGCAGCGTCAGATGTGTATAAGAGACAGTTTTTTTTTTTTTTTTTTTTTTTTT…TC; details: aptamer strand: ATP DNA aptamer (quencher-CACCTGGGGGAGTATTGCGGAGGAAGG + anchor), 100 nM annealed; ATP concentration: 500 uM; one replicate
In short: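 Cy3-labelled switching-strand clusters on a modified Illumina MiSeq flow-cell were annealed to 100 nM quencher-labelled ATP aptamer and imaged first in selection buffer, then after 15 min with 500 uM ATP at 22 °C. NaOH stripping and re-annealing separated each of five buffer/ATP cycles, and clusters outside 100-1000 RFU were excluded. The fluorescence ratio sums target-cycle Cy3 intensity over buffer-cycle Cy3 intensity per cluster and averages it per switch-domain sequence.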
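Further: ATP exposure 15 min at 22 °C before imaging.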

Sequence | switch fluorescence ratio
TGCCTCGAGT | 0.989
TGCCTTACGG | 1
TGCCTTAGTG | 0.996
TGCCTTATAA | 0.96
TGCGAAGTGC | 1.1
TGCGAATTCA | 0.975
TGCGACTAAA | 1.06
TGCGACTATG | 0.938
TGCGATCTGG | 0.978
TGCGATGGCT | 1.06
TGCGCAGTGT | 1.01
TGCGCGCCG | 1
TGCGCGTTTC | 1.07
TGCGCTCGGC | 1.01
TGCGCTGTAC | 3.34
TGCGCTTGAA | 0.968
TGCGCTTTCG | 1.01
TGCGCTTTCT | 1.06
TGCGGAACGT | 1.04
TGCGGAAGAT | 1.02
TGCGGAATTT | 1.04
TGCGGATTAA | 0.972
TGCGGATTTT | 1.04
TGCGGCGCGG | 1.02
TGCGGCTGAC | 1.09

Sequence | switch fluorescence ratio
TGCGGGTGCC | 1.02
TGCGGTCCGT | 1.77
TGCGGTTCTC | 1.01
TGCGTATTGT | 1.05
TGCGTCTTAC | 1.02
TGCGTGACGG | 1.02
TGCGTGACGT | 0.964
TGCGTGCGCT | 1.04
TGCGTGTACG | 1.04
TGCGTTGAG | 0.989
TGCGTTGGTA | 0.965
TGCGTTTAAA | 1.12
TGCTAACGGG | 1.01
TGCTAAGGCT | 1.01
TGCTAAGTCG | 0.906
TGCTAATC | 0.999
TGCTACTGTA | 1.11
TGCTAGAGAC | 1.06
TGCTAGGACT | 1
TGCTAGGCCA | 0.98
TGCTAGGCTT | 1.03
TGCTAGGGAG | 0.998
TGCTAGTGTC | 1.05
TGCTAGTGTT | 1.06
TGCTATCTTG | 0.988

Sequence | switch fluorescence ratio
TGCTATGAAG | 1.03
TGCTATTAC | 2.09
TGCTATTGAA | 1.02
TGCTCATTAG | 0.976
TGCTCCCCGA | 1.06
TGCTCCGAGT | 1.94
TGCTCGCACT | 1.11
TGCTCTATAT | 1.02
TGCTCTGTAT | 1.03
TGCTGATTT | 0.977
TGCTGCCTT | 1.04
TGCTGGAACC | 0.981
TGCTGGCATC | 1.02
TGCTGGCCGC | 1
TGCTTAAAAA | 0.994
TGCTTAAGTG | 1.01
TGCTTAGTTT | 0.929
TGCTTATTGA | 1.02
TGCTTCGTTC | 1.07
TGCTTGGCC | 0.977
TGCTTGGCTG | 0.975
TGCTTGGTCG | 0.984
TGGAAAACAT | 0.988
TGGAAAGCCA | 0.973
TGGAACAGTT | 0.98

Sequence | switch fluorescence ratio
TGGAACTAGG | 1.03
TGGAAGTGCG | 0.98
TGGAATAGCT | 0.944
TGGAATCGGA | 0.973
TGGAATTCAG | 1.02
TGGACCCGGA | 0.886
TGGACGGGAC | 1.15
TGGACTCTT | 0.965
TGGACTGAGT | 1.02
TGGACTGTGG | 0.991
TGGAGACCCA | 0.999
TGGAGCTCGG | 0.999
TGGAGCTGGT | 0.998
TGGAGGAACG | 0.989
TGGAGGCTAC | 5.54
TGGAGTCGAA | 1
TGGAGTCGGT | 1.03
TGGAGTGGTT | 1.02
TGGAGTTACG | 1.01
TGGATATTGG | 0.989
TGGATGATGT | 0.986
TGGATGCGTA | 0.984
TGGATGTCGC | 1.03
TGGATTTGCT | 0.998
TGGCAAACGC | 1.03

Sequence | switch fluorescence ratio
TGGCAGGCGG | 1
TGGCAGTGAG | 0.997
TGGCATAGCC | 0.997
TGGCATTGCG | 0.969
TGGCCAACGG | 1.01
TGGCCACCAC | 1.1
TGGCCACGCA | 1.03
TGGCCAGCCC | 0.989
TGGCCCCATC | 1.16
TGGCCCCTAG | 0.987
TGGCCCTGA | 1.01
TGGCCGCCGG | 1
TGGCCGTATG | 0.989
TGGCCGTCCG | 1.01
TGGCCGTCTC | 1.03
TGGCCTCGC | 1.03
TGGCCTTAGG | 0.978
TGGCGAATCA | 0.968
TGGCGCAAGG | 1.11
TGGCGCAGGT | 1.03
TGGCGGGACT | 1.02
TGGCGGGAGG | 0.992
TGGCGGGAGT | 1.05
TGGCGGTCCA | 0.99
TGGCTAATTC | 1.01

Sequence | switch fluorescence ratio
TGGCTAGAAA | 0.995
TGGCTAGTAC | 1.14
TGGCTATGCA | 0.98
TGGCTCACTC | 1.03
TGGGAAATTG | 1
TGGGAAGCGC | 0.892
TGGGAAGTTA | 1.02
TGGGAGCTTA | 1.06
TGGGAGGTGA | 1
TGGGATCGTA | 0.99
TGGGATGATA | 0.993
TGGGCAGTTG | 0.996
TGGGCCAATG | 1.03
TGGGCCATCA | 0.987
TGGGCGAATA | 1
TGGGCGCCAC | 1.02
TGGGCGCCTG | 1.08
TGGGCGCTGC | 1.01
TGGGCGGCGT | 1.05
TGGGCTCTAT | 0.982
TGGGCTTCGA | 1.02
TGGGCTTCTG | 1.01
TGGGGAAGAC | 1.3
TGGGGACCGC | 1.25
TGGGGAGGG | 0.964

Sequence | switch fluorescence ratio
TGGGGCGGAT | 1.08
TGGGGCTCAA | 1
TGGGGCTGCT | 1
TGGGGGGGT | 0.99
TGGGGTATTC | 0.999
TGGGTACCGC | 0.99
TGGGTAGCGT | 1.05
TGGGTCACG | 0.978
TGGGTCAGAT | 0.971
TGGGTCTGCT | 1.01
TGGGTGGCTA | 1
TGGGTTGGT | 1.02
TGGTAAATAG | 0.975
TGGTACTGTT | 1.04
TGGTACTTGG | 0.994
TGGTAGCACC | 0.995
TGGTAGGGCA | 1
TGGTAGTGCA | 0.985
TGGTAGTGGA | 0.977
TGGTCAATGC | 1.83
TGGTCGCGGG | 1
TGGTCGTCAA | 0.959
TGGTCTGCGG | 0.998
TGGTGACGCA | 1.12
TGGTGATACG | 1.01

Sequence | switch fluorescence ratio
TGGTGATCCT | 1.02
TGGTGCATCG | 0.985
TGGTGCATG | 1.05
TGGTGCCTTT | 0.99
TGGTGCGCA | 0.974
TGGTGCTGTA | 1.01
TGGTGGATCG | 0.933
TGGTGTCGCC | 1.01
TGGTGTCTTG | 0.984
TGGTGTGACT | 1.02
TGGTGTGATA | 1.05
TGGTTAAGTC | 1.03
TGGTTACTTT | 0.964
TGGTTAGACG | 1.04
TGGTTATCGG | 1.01
TGGTTCGGTC | 1.09
TGGTTGGTAA | 0.974
TGGTTTATGA | 0.992
TGGTTTATTA | 1.03
TGGTTTGATG | 0.984
TGGTTTTCGA | 0.992
TGTAAAAAAT | 0.976
TGTAAACCCA | 1.04
TGTAAATGGA | 1.01
TGTAACCAAG | 0.996
